Results on 31 molecules are retold here after publication PMC9911399, “Two distinct binding modes provide the RNA-binding protein RbFox with extraordinary sequence specificity”.

The labels stand for the following.
T1: RBFOX1 RRM (Homo sapiens, UniProt Q9NWB1 109-208)
T1 sequence: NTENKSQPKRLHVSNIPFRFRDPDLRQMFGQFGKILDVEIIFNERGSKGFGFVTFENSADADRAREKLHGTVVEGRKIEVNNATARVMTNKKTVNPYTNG

B1: UGUCCUG (DNA:RNA)
RNA: GGGAGACCGGAAUUCAGAUUGUCCUGUCCUGUUAAAUCCCGUCGUAGCCACCA
DNA 1: CAATCTGAATTCCGGTCTCCC
DNA 2: TGGTGGCTACGACGGGATT
B2: AAACCUU (DNA:RNA)
RNA: B1 RNA with U25A, G26A, U27A, G31U
DNA 1: CAATCTGAATTCCGGTCTCCC
DNA 2: TGGTGGCTACGACGGGATT
B3: UGGGAGG (DNA:RNA)
RNA: B1 RNA with U27G, C28G, C29A, U30G
DNA 1: CAATCTGAATTCCGGTCTCCC
DNA 2: TGGTGGCTACGACGGGATT
B4: AUUAUCG (DNA:RNA)
RNA: B1 RNA with U25A, G26U, C28A, C29U, U30C
DNA 1: CAATCTGAATTCCGGTCTCCC
DNA 2: TGGTGGCTACGACGGGATT
B5: GACGCUC (DNA:RNA)
RNA: B1 RNA with U25G, G26A, U27C, C28G, G31C
DNA 1: CAATCTGAATTCCGGTCTCCC
DNA 2: TGGTGGCTACGACGGGATT
B6: CAGGGUC (DNA:RNA)
RNA: B1 RNA with U25C, G26A, U27G, C28G, C29G, G31C
DNA 1: CAATCTGAATTCCGGTCTCCC
DNA 2: TGGTGGCTACGACGGGATT
B7: CCAGCGG (DNA:RNA)
RNA: B1 RNA with U25C, G26C, U27A, C28G, U30G
DNA 1: CAATCTGAATTCCGGTCTCCC
DNA 2: TGGTGGCTACGACGGGATT
B8: GAAUGGA (DNA:RNA)
RNA: GGGAGACCGGAAUUCAGAUUGUCCGAAUGGAUUAAAUCCCGUCGUAGCCACCA
DNA 1: CAATCTGAATTCCGGTCTCCC
DNA 2: TGGTGGCTACGACGGGATT
B9: CGUCCGU (DNA:RNA)
RNA: B1 RNA with U25C, U30G, G31U
DNA 1: CAATCTGAATTCCGGTCTCCC
DNA 2: TGGTGGCTACGACGGGATT
B10: CUACGGC (DNA:RNA)
RNA: B8 RNA with G25C, A26U, U28C, A31C
DNA 1: CAATCTGAATTCCGGTCTCCC
DNA 2: TGGTGGCTACGACGGGATT
B11: AUUGACA (DNA:RNA)
RNA: B8 RNA with G25A, A26U, A27U, U28G, G29A, G30C
DNA 1: CAATCTGAATTCCGGTCTCCC
DNA 2: TGGTGGCTACGACGGGATT
B12: CCGGCAU (DNA:RNA)
RNA: B1 RNA with U25C, G26C, U27G, C28G, U30A, G31U
DNA 1: CAATCTGAATTCCGGTCTCCC
DNA 2: TGGTGGCTACGACGGGATT
B13: UUCGCAU (DNA:RNA)
RNA: B1 RNA with G26U, U27C, C28G, U30A, G31U
DNA 1: CAATCTGAATTCCGGTCTCCC
DNA 2: TGGTGGCTACGACGGGATT
B14: UGUUCAA (DNA:RNA)
RNA: B1 RNA with C28U, U30A, G31A
DNA 1: CAATCTGAATTCCGGTCTCCC
DNA 2: TGGTGGCTACGACGGGATT
B15: ACUCCAC (DNA:RNA)
RNA: B1 RNA with U25A, G26C, U30A, G31C
DNA 1: CAATCTGAATTCCGGTCTCCC
DNA 2: TGGTGGCTACGACGGGATT
B16: AGGCCAA (DNA:RNA)
RNA: B1 RNA with U25A, U27G, U30A, G31A
DNA 1: CAATCTGAATTCCGGTCTCCC
DNA 2: TGGTGGCTACGACGGGATT
B17: GCUCCUG (DNA:RNA)
RNA: B1 RNA with U25G, G26C
DNA 1: CAATCTGAATTCCGGTCTCCC
DNA 2: TGGTGGCTACGACGGGATT
B18: AGGCCUC (DNA:RNA)
RNA: B1 RNA with U25A, U27G, G31C
DNA 1: CAATCTGAATTCCGGTCTCCC
DNA 2: TGGTGGCTACGACGGGATT
B19: CAGUCUC (DNA:RNA)
RNA: B8 RNA with G25C, A27G, G29C, G30U, A31C
DNA 1: CAATCTGAATTCCGGTCTCCC
DNA 2: TGGTGGCTACGACGGGATT
B20: GGACGAA (DNA:RNA)
RNA: B8 RNA with A26G, U28C, G30A
DNA 1: CAATCTGAATTCCGGTCTCCC
DNA 2: TGGTGGCTACGACGGGATT
B21: UCCUGGU (DNA:RNA)
RNA: B8 RNA with G25U, A26C, A27C, A31U
DNA 1: CAATCTGAATTCCGGTCTCCC
DNA 2: TGGTGGCTACGACGGGATT
B22: ACGGUCA (DNA:RNA)
RNA: B8 RNA with G25A, A26C, A27G, U28G, G29U, G30C
DNA 1: CAATCTGAATTCCGGTCTCCC
DNA 2: TGGTGGCTACGACGGGATT
B23: GAGAUAC (DNA:RNA)
RNA: B8 RNA with A27G, U28A, G29U, G30A, A31C
DNA 1: CAATCTGAATTCCGGTCTCCC
DNA 2: TGGTGGCTACGACGGGATT
B24: UUAGCCG (DNA:RNA)
RNA: B1 RNA with G26U, U27A, C28G, U30C
DNA 1: CAATCTGAATTCCGGTCTCCC
DNA 2: TGGTGGCTACGACGGGATT
B25: GUACUUC (DNA:RNA)
RNA: B8 RNA with A26U, U28C, G29U, G30U, A31C
DNA 1: CAATCTGAATTCCGGTCTCCC
DNA 2: TGGTGGCTACGACGGGATT
B26: UUCCGCG (DNA:RNA)
RNA: B1 RNA with G26U, U27C, C29G, U30C
DNA 1: CAATCTGAATTCCGGTCTCCC
DNA 2: TGGTGGCTACGACGGGATT
B27: GACGCCA (DNA:RNA)
RNA: B8 RNA with A27C, U28G, G29C, G30C
DNA 1: CAATCTGAATTCCGGTCTCCC
DNA 2: TGGTGGCTACGACGGGATT
B28: AUCAUUU (DNA:RNA)
RNA: B1 RNA with U25A, G26U, U27C, C28A, C29U, G31U
DNA 1: CAATCTGAATTCCGGTCTCCC
DNA 2: TGGTGGCTACGACGGGATT
B29: CGAGGCG (DNA:RNA)
RNA: B8 RNA with G25C, A26G, U28G, G30C, A31G
DNA 1: CAATCTGAATTCCGGTCTCCC
DNA 2: TGGTGGCTACGACGGGATT
B30: UUCACUC (DNA:RNA)
RNA: B1 RNA with G26U, U27C, C28A, G31C
DNA 1: CAATCTGAATTCCGGTCTCCC
DNA 2: TGGTGGCTACGACGGGATT
B31: CUGCUUC (DNA:RNA)
RNA: B1 RNA with U25C, G26U, U27G, C29U, G31C
DNA 1: CAATCTGAATTCCGGTCTCCC
DNA 2: TGGTGGCTACGACGGGATT

Substitutions are numbered along the chain they refer to; changes in the protein carry UniProt numbers. The list shows a part of the results.

This assay has as its target T1, RBFOX1 RRM. As to the kind of experiment: EMSA; HiTS-Eq, 1 nM pool, 10 min; buffer printed only for the single-RNA assays: 10 mM Tris pH 7.5, 150 mM NaCl, 3.4 mM EDTA, 0.001% NP-40, 30 C. Conditions: tags: His6 N-terminal (pET28a); label: 5' 32P. The procedure, abridged: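 Relative association constants, normalised to the cognate motif, were derived by comparing read counts of each RNA species with those of the control reaction. The RNA sequenced was the free fraction, separated by 8% native PAGE after a 10 min equilibration in 50 µL of 1 nM 5′-radiolabelled RNA (7 randomized nucleotides) with increasing concentrations of purified wild-type or mutant RbFox RRM.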
Consider B1, for which the binding signal was 0.0171 KA relative to UGCAUGU.
Consider B2, for which the binding signal is 0.00164 KA relative to UGCAUGU.
With B3 the figure was 0.0271 KA relative to UGCAUGU; with B4, 0.006 KA relative to UGCAUGU.
With B5 the figure was 0.0143 KA relative to UGCAUGU.
The result for B6 reads 0.0191 KA relative to UGCAUGU; that for B7, 0.00459 KA relative to UGCAUGU.
Regarding B8, the binding signal was 0.00719 KA relative to UGCAUGU.
Regarding B9, the binding signal was 0.0125 KA relative to UGCAUGU.
With B10 the figure was 0.00852 KA relative to UGCAUGU.
With B11 the figure was 0.00454 KA relative to UGCAUGU; with B12, 0.013 KA relative to UGCAUGU; with B13, 0.0146 KA relative to UGCAUGU.
With B14 the figure was 0.0169 KA relative to UGCAUGU.
For the molecule B15, the binding signal was 0.0042 KA relative to UGCAUGU.
With B16 the figure was 0.00417 KA relative to UGCAUGU; with B17, 0.0135 KA relative to UGCAUGU.
With B18 the figure was 0.00929 KA relative to UGCAUGU.
In the case of B19, the binding signal was 0.00835 KA relative to UGCAUGU.
With B20 the figure was 0.0191 KA relative to UGCAUGU; with B21, 0.0147 KA relative to UGCAUGU.
With B22 the figure was 0.00956 KA relative to UGCAUGU; with B23, 0.00794 KA relative to UGCAUGU.
Consider B24, for which the binding signal was 0.00941 KA relative to UGCAUGU.
The result for B25 reads 0.00753 KA relative to UGCAUGU; that for B26, 0.0101 KA relative to UGCAUGU.
The result for B27 reads 0.00741 KA relative to UGCAUGU.
B28: the binding signal was 0.00187 KA relative to UGCAUGU.
With B29 the figure was 0.0152 KA relative to UGCAUGU.
With B30 the figure was 0.00506 KA relative to UGCAUGU; with B31, 0.0207 KA relative to UGCAUGU.
